Some of the results follow. Sequences were assembled here from the parent chain. Inactive controls read about 0.05.
B1: TEV protease; numbered along this chain (parent)
chain: MGESLFKGPRDYNPISSSICHLTNESDGHTTSLYGIGFGPFIITNKHLFRRNNGTLVVQSLHGVFKVKDTTTLQQHLVDGRDMIIIRMPKDFPPFPQKLKFREPQREERICLVTTNFQTKSMSSMVSDTSCTFPSGDGIFWKHWIQTKDGQCGSPLVSTRDGFIVGIHSASNFTNTNNYFTSVPKNFMELLTNQEAQQWVSGWRLNADSVLWGGHKVFMVKPEEPFQPVKEATQL

Variants of: B1
Experiment: raw area under fraction-flipped curve 0-4 h after induction (AUC4h, not background-subtracted), DNA-recorder readout of cleavage of the substrate (dimensionless); higher = more cleavage of the substrate by the protease variant
Settings: temperature: 34 °C; time window: 0-4 h after rhamnose induction
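Note: Bxb1 expression induced with 0.2% (w/v) L-rhamnose at OD600 near 0.5, cultures sampled hourly, flipped fraction per protease–substrate barcode pair counted by paired-end Illumina sequencing.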

| Variant | area with substrate ENLYDQS | area with substrate ENLYEQS | area with substrate ENLYGQS | area with substrate ENLYHQS | area with substrate ENLYIQS | area with substrate ENLYKQS | area with substrate ENLYLQS | area with substrate ENLYNQS | area with substrate ENLYPQS | area with substrate ENLYQQS | area with substrate ENLYTQS | area with substrate ENLYVQS | area with substrate ENLYWQS | area with substrate ENLYYQS | area with substrate ENLYMQS | area with substrate ENLYSQS | area with substrate ENLYRQS |
| --- | --- | --- | --- | --- | --- | --- | --- | --- | --- | --- | --- | --- | --- | --- | --- | --- | --- |
| MGESLFKGPRDYNPISSSICHLTNESDGHTTSLYGIGFGPFIITNKHLFRRNNGTLVVQSLHGVFKVKDTTTLQQHLVDGRDMIIIRMPKDFPPFPQKLKFREPQREERICLVTTNFQTKSMSSMVSDTSCTFPSGDGIFWKHWIQTKDGQCGSPLVSTRDGFIVGIHSASNFTNTNNYFTSVPKNFMELLTNQEAQQWVSGWRLNADSVLWGGHKVFMVKPEEPFQPVGEATQL [K230G] | 0.0585 | 0.0409 | 0.048 | 0.0605 | 0.0983 | 0.0701 | 0.075 | 0.068 | 0.0765 | 0.0606 | 0.0826 | 0.128 | 0.0984 | 0.0717 | – | – | – |
| MGESLFKGPRDYNPISSSICHLTNESDGHTTSLYGIGFGPFIITNKHLFRRNNGTLVVQSLHGVFKVKDTTTLQQHLVDGRDMIIIRMPKDFPPFPQKLKFREPQREERICLVTTNFQTKSMSSMVSDTSCTFPSGDGIFWKHWIQTKDGQCGSPLVSTRDGFIVGIHSASNFTNTNNYFTSVPKNFMELLTNQEAQQWVSGWRLNADSVLWGGHKVFMVKPEEPFQPVKGATQL [E231G] | 0.0584 | 0.0727 | 0.0633 | 0.0726 | 0.137 | 0.0631 | – | 0.0558 | 0.0905 | 0.114 | – | 0.126 | 0.0909 | 0.067 | 0.0767 | 0.0609 | – |
| MGESLFKGPRDYNPISSSICHLTNESDGHTTSLYGIGFGPFIITNKHLFRRNNGTLVVQSLHGVFKVKDTTTLQQHLVDGRDMIIIRMPKDFPPFPQKLKFREPQREERICLVTTNFQTKSMSSMVSDTSCTFPSGDGIFWKHWIQTKDGQCGSPLVSTRDGFIVGIHSASNFTNTNNYFTSVPKNFMELLTNQEAQQWVSGWRLNADSVLWGGHKVFMVKPEEPFQPVKEASQL [T233S] | 0.0549 | 0.0529 | 0.0665 | 0.0785 | 0.152 | 0.0406 | 0.0607 | 0.0597 | 0.0777 | 0.0636 | 0.0822 | – | 0.0846 | 0.0737 | 0.0952 | 0.0779 | 0.0743 |
| MGPSLFKGPRDYNPISSSICHLTNESDGHTTSLYGIGFGPFIITNKHLFRRNNGTLVVQSLHGVFKVKDTTTLQQHLVDGRDMIIIRMPKDFPPFPQKLKFREPQREERICLVTTNFQTKSMSSMVSDTSCTFPSGDGIFWKHWIQTKDGQCGSPLVSTRDGFIVGIHSASNFTNTNNYFTSVPKNFMELLTNQEAQQWVSGWRLNADSVLWGGHKVFMVKPEEPFQPVKEATQL [E3P] | – | 0.0685 | – | 0.0656 | 0.15 | 0.0543 | 0.0887 | 0.084 | 0.0678 | – | – | – | 0.073 | 0.0601 | 0.0702 | 0.0653 | – |
| MGESLFKGPRDYNPISSSICHLTNEVDGHTTSLYGIGFGPFIITNKHLFRRNNGTLVVQSLHGVFKVKDTTTLQQHLVDGRDMIIIRMPKDFPPFPQKLKFREPQREERICLVTTNFQTKSMSSMVSDTSCTFPSGDGIFWKHWIQTKDGQCGSPLVSTRDGFIVGIHSASNFTNTNNYFTSVPKNFMELLTNQEAQQWVSGWRLNADSVLWGGHKVFMVKPEEPFQPVKEATQL [S26V] | – | 0.0578 | 0.0513 | 0.065 | – | 0.0696 | – | 0.0563 | 0.0745 | – | 0.0761 | – | 0.0482 | 0.0608 | 0.0673 | 0.0731 | 0.0602 |
| MGESLFKGPRDYNPISSSICHLTNESDGHTTSLYLIGFGPFIITNKHLFRRNNGTLVVQSLHGVFKVKDTTTLQQHLVDGRDMIIIRMPKDFPPFPQKLKFREPQREERICLVTTNFQTKSMSSMVSDTSCTFPSGDGIFWKHWIQTKDGQCGSPLVSTRDGFIVGIHSASNFTNTNNYFTSVPKNFMELLTNQEAQQWVSGWRLNADSVLWGGHKVFMVKPEEPFQPVKEATQL [G35L] | – | 0.0348 | – | – | 0.0476 | 0.0621 | – | – | – | – | – | 0.0509 | – | – | – | – | – |
| MGESLFKGPRDYNPISSSICHLTNESDGHTTSLYGIGFGPFDITNKHLFRRNNGTLVVQSLHGVFKVKDTTTLQQHLVDGRDMIIIRMPKDFPPFPQKLKFREPQREERICLVTTNFQTKSMSSMVSDTSCTFPSGDGIFWKHWIQTKDGQCGSPLVSTRDGFIVGIHSASNFTNTNNYFTSVPKNFMELLTNQEAQQWVSGWRLNADSVLWGGHKVFMVKPEEPFQPVKEATQL [I42D] | – | 0.0425 | 0.0407 | 0.0451 | – | – | – | 0.0522 | 0.0513 | 0.0477 | – | – | 0.056 | 0.0204 | 0.0663 | – | 0.0731 |
| MGESLFKGPRDYNPISSSICHLTNESDGHTTSLYGIGFGPFIITSKHLFRRNNGTLVVQSLHGVFKVKDTTTLQQHLVDGRDMIIIRMPKDFPPFPQKLKFREPQREERICLVTTNFQTKSMSSMVSDTSCTFPSGDGIFWKHWIQTKDGQCGSPLVSTRDGFIVGIHSASNFTNTNNYFTSVPKNFMELLTNQEAQQWVSGWRLNADSVLWGGHKVFMVKPEEPFQPVKEATQL [N45S] | – | 0.0612 | 0.0781 | 0.0666 | 0.0735 | 0.0442 | – | 0.0492 | 0.061 | 0.0664 | – | 0.0775 | 0.0599 | – | 0.0608 | – | 0.0629 |
| MGESLFKGPRDYNPISSSICHLTNESDGHTTSLYGIGFGPFIITNKHLFRRNNGTLVVQSLNGVFKVKDTTTLQQHLVDGRDMIIIRMPKDFPPFPQKLKFREPQREERICLVTTNFQTKSMSSMVSDTSCTFPSGDGIFWKHWIQTKDGQCGSPLVSTRDGFIVGIHSASNFTNTNNYFTSVPKNFMELLTNQEAQQWVSGWRLNADSVLWGGHKVFMVKPEEPFQPVKEATQL [H62N] | – | 0.0683 | 0.0618 | 0.0676 | – | 0.0447 | 0.082 | 0.0577 | 0.0481 | – | 0.0924 | – | – | 0.0702 | 0.0863 | – | 0.068 |
| MGESLFKGPRDYNPISSSICHLTNESDGHTTSLYGIGFGPFIITNKHLFRRNNGTLVVQSLHGVFKVKDTTTLQQHLVDGRDMIIIRMFKDFPPFPQKLKFREPQREERICLVTTNFQTKSMSSMVSDTSCTFPSGDGIFWKHWIQTKDGQCGSPLVSTRDGFIVGIHSASNFTNTNNYFTSVPKNFMELLTNQEAQQWVSGWRLNADSVLWGGHKVFMVKPEEPFQPVKEATQL [P89F] | – | 0.0369 | 0.0552 | 0.05 | – | 0.0569 | – | 0.0262 | 0.0446 | 0.0579 | – | 0.0617 | 0.0443 | 0.0361 | 0.0563 | – | – |
